The full ranking holds about 110,000 compounds; the median of “z-score” is about -0.1, and the highest 2% start at about 2. This is one part of the list.
target: Metabotropic glutamate receptor 8 (Rattus norvegicus) (UniProt P70579); assay: mGluR8 Gi/Go-coupled signaling modulation – cell-based, rat, thallium flux, HTS, primary screen (AID 488969); details: HEK293 rat mGluR8, GIRK (G protein-gated inwardly rectifying potassium channel) thallium flux, FluoZin2; at 10 µM; stronger effect = higher value; submaximal glutamate (EC20) added with thallium
Chain of UniProt P70579 (P70579 whole entry, looked up): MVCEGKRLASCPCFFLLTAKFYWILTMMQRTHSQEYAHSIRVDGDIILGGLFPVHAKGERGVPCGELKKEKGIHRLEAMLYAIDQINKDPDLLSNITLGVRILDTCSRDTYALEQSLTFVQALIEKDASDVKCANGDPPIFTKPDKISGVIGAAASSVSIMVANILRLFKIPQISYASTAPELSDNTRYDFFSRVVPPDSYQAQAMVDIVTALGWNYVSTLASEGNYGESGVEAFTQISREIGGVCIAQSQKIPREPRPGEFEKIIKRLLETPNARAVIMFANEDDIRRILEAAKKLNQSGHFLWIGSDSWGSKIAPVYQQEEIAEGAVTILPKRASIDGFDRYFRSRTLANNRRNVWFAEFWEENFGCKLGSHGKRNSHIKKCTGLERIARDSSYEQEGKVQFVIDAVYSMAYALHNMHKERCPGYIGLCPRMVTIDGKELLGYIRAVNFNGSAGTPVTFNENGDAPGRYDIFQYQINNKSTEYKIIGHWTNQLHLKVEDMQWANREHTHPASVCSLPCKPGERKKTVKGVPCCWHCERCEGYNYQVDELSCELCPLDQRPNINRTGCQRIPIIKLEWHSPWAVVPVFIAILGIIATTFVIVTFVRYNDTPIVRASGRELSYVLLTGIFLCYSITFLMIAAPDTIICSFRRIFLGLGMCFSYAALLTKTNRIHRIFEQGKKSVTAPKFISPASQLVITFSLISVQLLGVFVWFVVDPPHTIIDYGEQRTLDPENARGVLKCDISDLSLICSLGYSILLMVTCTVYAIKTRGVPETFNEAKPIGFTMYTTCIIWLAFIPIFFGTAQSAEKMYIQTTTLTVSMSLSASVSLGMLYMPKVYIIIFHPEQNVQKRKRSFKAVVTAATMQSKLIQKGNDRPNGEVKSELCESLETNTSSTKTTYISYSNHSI

| SMILES | z-score |
| --- | --- |
| Cc1cc(C)nc(NS(=O)(=O)c2ccc(Br)cc2)n1 | -0.00295 |
| CCCS(=O)(=O)N1CCC(C(=O)N2CCc3ccccc3C2)CC1 | 0.195 |
| CCOC(=O)Cc1csc(NC(=O)CCCN2C(=O)c3ccccc3C2=O)n1 | -0.155 |
| CCS(=O)(=O)N1CCN(C(=O)c2cccs2)CC1 | -0.0769 |
| O=C(CCN1CCN(CCO)CC1)Nc1ccc(OCc2ccccc2)cc1 | 0.401 |
| O=C(CNC(=O)c1cccc(F)c1)N/N=C/c1ccc(O)c([N+](=O)[O-])c1 | 0.115 |
| CCCCCn1c(C(Cc2ccccc2)NC(=O)COC)nc2ccccc21 (stereo not drawn) | -0.00692 |
| C/C=C/CSc1nc2c(c(=O)[nH]c(=O)n2C)n1Cc1ccc(C)cc1 | -0.177 |
| CCOc1cc(C(=O)OCC(=O)c2c(C)[nH]c3ccccc23)ccc1OCC(=O)N1CCOCC1 | -0.335 |
| CCOC(=O)c1nnn(-c2nonc2-n2cccc2)c1CCl | -0.253 |
| O=C(O)CSc1c2c(nc3cc(C(=O)N4CCOCC4)ccc13)CCCC2 | -0.0589 |
| CCC(C)NC(=O)CSc1nnc(-c2ccncc2)n1-c1ccc(OC)cc1 (stereo not drawn) | -1.15 |
| COc1ccc(C)cc1NC(=O)CN1CCN(C/C=C/c2ccccc2)CC1 | -0.172 |
| CCN(CC)c1ccc(NC(=O)c2ccccc2)cc1S(=O)(=O)Nc1ccccc1OC | -0.252 |
| CCc1nnc(NC(=O)CSc2nnc(CNc3ccc(OC)cc3)n2C)s1 | -0.289 |
| CC(C(=O)N1CCCCC1)N1C(=O)c2ccccc2C1=O (stereo not drawn) | 0.184 |
| Cc1nnc2n(c1=O)C(CS(=O)(=O)c1ccccc1)CS2 (stereo not drawn) | -0.0882 |
| COc1cccc(C2/C(=C(\O)c3ccc4c(c3)OCCO4)C(=O)C(=O)N2CCCN(C)C)c1OC (stereo not drawn) | 0.00077 |
| O=C(Nc1ccc2c(c1)Cc1ccccc1-2)c1cc2ccccc2o1 | 0.506 |
| CC(=O)N1CCc2cc(S(=O)(=O)NCCCN3CCN(Cc4ccccc4)CC3)ccc21 | -0.184 |
| Cc1noc(/C=C/c2ccco2)c1S(=O)(=O)N1CCC(C(=O)NCc2ccco2)CC1 | -0.937 |
| O=C(Nc1cccnc1)c1ccc(NC(=O)c2ccco2)cc1 | -0.0558 |
| O=C(NNC(=S)NCc1ccco1)c1cccs1 | 0.0115 |

| SMILES | z-score |
| --- | --- |
| C/C(=N/NC(=O)C1CC1(c1ccccc1)c1ccccc1)c1cccs1 (stereo not drawn) | -0.154 |
| O=C(Oc1ccc2c3c(c(=O)oc2c1)CCC3)c1ccccc1[N+](=O)[O-] | -0.1 |
| Cc1nnc(SCC(=O)Nc2nsc(-c3ccc(Cl)cc3)n2)s1 | 0.147 |
| CCc1nc2c3cnn(-c4cc(Cl)ccc4C)c3ncn2n1 | -0.413 |
| Cc1ccc(NC(=O)c2ccc3c(c2)N(CC(=O)N2CCCCC2)C(=O)C(C)(C)O3)cc1 | -0.4 |
| CSc1cc(C)n(-c2ccc(Cl)cc2)c(=S)c1C(C)=O | -0.101 |
| CCN(Cc1ccccc1)C(=O)Cn1c(=O)n(CC(=O)NCc2ccco2)c(=O)c2sccc21 | -0.184 |
| C/C=C(/C)C(=O)OC1c2c(ccc3ccc(=O)oc23)OC(C)(C)C1OC(C)=O (stereo not drawn) | -0.21 |
| CCCCNC(=O)C1CCCN1C(=O)Nc1ccccc1 (stereo not drawn) | 0.0588 |
| O=[N+]([O-])c1cc2oc3c(c2c(C=NCc2ccccc2)c1O)CCCC3 | -0.0638 |
| O=C(Nc1ccccc1C(=O)NCc1ccco1)NC1CCCCC1 | -0.175 |
| O=C(NNC(=S)NC(=O)c1ccccc1[N+](=O)[O-])c1ccccc1Cl | -0.333 |
| COc1cc(Cl)c(C)cc1NC(=O)CSc1nnc(-c2ccccn2)n1Cc1ccco1 | -0.14 |
| COc1nn(CC(=O)N2N=C(C)CC2(O)C(F)F)cc1[N+](=O)[O-] (stereo not drawn) | -0.265 |
| CC1CCC2(CC1)NC(CO)(CO)CO2 (stereo not drawn) | 0.0471 |
| CC(=O)N1CCN=C1SCc1ccccc1Cl | 0.0781 |
| CCN(C(=O)COC(=O)c1ccc(OCc2c(C)noc2C)cc1)c1ccccc1 | -2 |
| CC1=CC(c2ccccc2)n2nc(N3C(=O)C4CC=CCC4C3=O)nc2N1 (stereo not drawn) | -0.783 |
| CCN(C(=O)c1cc2cccc(OC)c2oc1=O)C1CCCCC1 | -0.137 |
| CC(C)c1ccc2c(c1)C(c1ccc(N3CCOCC3)cc1)=NNC(c1cccs1)=N2 | 0.382 |
| Cc1ccc(/C=C(\C#N)c2nn(-c3ccccc3)c(N)c2C#N)cc1 | -0.255 |
| COC(=O)C1=C(C)Nc2nnnn2C1c1ccccc1Cl (stereo not drawn) | -2.07 |
| CN(C(=O)c1ccncc1)C1CC(C)(C)N(O)C(C)(C)C1 | 0.566 |

| SMILES | z-score |
| --- | --- |
| CCCOc1ccc(OCCOCCN2CCc3ccccc3C2)cc1 | 0.597 |
| O=C(Nc1ccccc1F)c1cc(S(=O)(=O)N2CCCCC2)cs1 | -0.167 |
| O=C(c1ccc2c(c1)OCO2)N1CCN(c2ncccn2)CC1 | -0.381 |
| CCOC(=O)N1CCC(NC(=O)c2cc3sccc3n2CC)CC1 | 0.349 |
| Cc1cccc(C)c1N(CC(=O)N1CCN(C)CC1)S(C)(=O)=O | -0.00135 |
| Cc1cc(NC(=O)CSc2nnc(-c3ccc(Br)o3)n2Cc2ccccc2)no1 | -1.65 |
| CCCC(=O)NC1C2CC3CC(C2)CC1C3 (stereo not drawn) | 0.313 |
| COc1ccc(NC(=O)CSc2nc(N)c3cc4c(nc3n2)CCCC4)cc1 | -0.916 |
| CCN(CCNc1ccc(Cl)cc1[N+](=O)[O-])C(=O)c1cc([N+](=O)[O-])c(N(C)C)cc1OC | 0.897 |
| Cc1cccc(-c2nc3ccccc3c3nncn23)c1 | 1.07 |
| Cc1cccc(N2CCN(C(=O)c3cc(C)oc3C)CC2C)c1 (stereo not drawn) | 1.2 |
| Cc1ccc(SCCC(=O)NCCSCc2ccccc2C)cc1 | -0.15 |
| O=C(O)c1cccc(N/N=C/c2cccs2)c1 | -1.59 |
| Cc1ccc(NC(=O)Cn2c(/C=C/c3ccccc3)nc3ccccc32)cc1C | -0.495 |
| O=c1cc(/N=C/c2coc3c(ccc4ccccc43)c2=O)[nH]c(=S)[nH]1 | 0.013 |
| COc1cccc(/C(O)=C/c2nc3ccc(C(=O)NCCc4ccc(Cl)cc4)cc3[nH]c2=O)c1 | -0.143 |
| Cc1ccc(-c2nn3c(C)nnc3s2)cc1NC(=O)c1ccc(-c2cccc(Cl)c2)o1 | -0.98 |
| O=C(Nc1ccccc1)c1ccc(N2CCN(c3ccccn3)CC2)c(S(=O)(=O)N2CCOCC2)c1 | -0.415 |
| CCOC(=O)c1c(NC(=O)C2COc3ccccc3O2)sc(C)c1C (stereo not drawn) | 0.0349 |
| COc1cc(NC(=S)N2CCCC(CO)C2)c(OC)cc1Cl (stereo not drawn) | -0.0639 |
| N#CC1=C2SCN(Cc3ccco3)CN2C(=O)CC1c1cccc2ccccc12 (stereo not drawn) | 0.457 |
| CC(C)c1nc(SCC(=O)Nc2ccc3c(c2)OCCO3)c2c(=O)n(C)c(=O)n(C)c2n1 | -0.492 |

— PubChem BioAssay AID488969 (Vanderbilt High Throughput Screening Facility, 2010)
